# About 230 (0.21%) of roughly 110,000 compounds showed an effect of 50% or more. The list shows a part of the results.
# Molecular target: DPAP1 (Plasmodium falciparum, UniProt Q8IIJ9)
# Test: primary screen, percent inhibition; read by cleavage of a fluorogenic dipeptide substrate; higher = more effect of the substance
# Design: species or system P. falciparum D10 trophozoite lysates; single well
# 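Further: 30 min substrate incubation versus DMSO and 10 µM JCP410 controls.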
# Sequence of DPAP1 (Q8IIJ9 whole entry, looked up): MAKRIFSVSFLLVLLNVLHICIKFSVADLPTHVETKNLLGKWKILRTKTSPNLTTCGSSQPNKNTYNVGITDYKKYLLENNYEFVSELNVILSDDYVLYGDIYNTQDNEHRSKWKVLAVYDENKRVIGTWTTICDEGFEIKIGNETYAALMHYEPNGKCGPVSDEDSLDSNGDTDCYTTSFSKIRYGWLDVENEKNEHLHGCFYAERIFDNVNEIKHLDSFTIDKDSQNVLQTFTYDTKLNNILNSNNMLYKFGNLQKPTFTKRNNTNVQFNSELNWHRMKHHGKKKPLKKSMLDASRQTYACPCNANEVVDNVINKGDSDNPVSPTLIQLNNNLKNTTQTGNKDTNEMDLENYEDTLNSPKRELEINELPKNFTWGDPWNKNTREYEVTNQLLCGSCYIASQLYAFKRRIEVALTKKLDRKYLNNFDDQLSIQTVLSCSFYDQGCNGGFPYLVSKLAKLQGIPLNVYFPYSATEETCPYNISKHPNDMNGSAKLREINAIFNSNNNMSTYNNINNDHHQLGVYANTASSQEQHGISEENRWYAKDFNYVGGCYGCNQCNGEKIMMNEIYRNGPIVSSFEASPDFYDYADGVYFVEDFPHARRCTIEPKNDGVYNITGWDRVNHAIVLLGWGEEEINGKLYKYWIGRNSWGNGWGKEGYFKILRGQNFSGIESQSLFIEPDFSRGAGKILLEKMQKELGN
row,Structure (SMILES),% Inhibition @ 10 uM [%]
1,COc1ccc(Br)cc1CNCC1CCCO1 (stereo not drawn),0.389
2,COc1ccc(-n2nnc(-c3nc(-c4cccnc4)no3)c2N)cc1OC,5.71
3,CC(Oc1ccc(Cl)cc1Cl)C(=O)N1CCN(C)CC1 (stereo not drawn),-2.15
4,O=C(NCCCO)/C(=C/c1ccccc1)NC(=O)c1cccc(Br)c1,-4.49
5,Sc1nnc2n(-c3ccccc3)c3ccccc3n12,-2.29
6,Cc1ccc(S(=O)(=O)N2CCCC(C(=O)NCCc3ccccc3C)C2)cc1 (stereo not drawn),-4.67
7,O=C(Nc1ccc(Oc2ccccc2)cc1)c1cccnc1,-3.72
8,COc1ccc(OCc2ccc(C(=O)Nc3cccc(C(=O)O)c3)cc2)cc1,3.01
9,COc1ccccc1NC(=O)CN(C)S(=O)(=O)c1ccc(OC)c(OC)c1,3.53
10,O=C(NCc1ccc(Cl)cc1)C(=O)Nc1ccccc1,4.54
11,CN1CCN(c2nc3c(N)ncn(CC(O)CO)c-3n2)CC1 (stereo not drawn),4.57
12,CC(NC(=O)c1cc2oc3ccccc3c2n1C)c1ccc2c(c1)OCCO2 (stereo not drawn),-0.447
13,CCCN1C/C(=C\c2cccc(OC)c2OC)C(=O)/C(=C/c2cccc(OC)c2OC)C1,5.02
14,Cn1c(=O)c2ncnnc2n(C)c1=O,9.1
15,Cc1cc(OCC(O)CN2CCN(Cc3ccc4c(c3)OCO4)CC2)cc(C)c1Cl (stereo not drawn),-5.35
16,Brc1ccc(CN2CCN(C/C=C/c3ccccc3)CC2)o1,-1.98
17,Brc1csc(CN2CCN(Cc3ccc4c(c3)OCO4)CC2)c1,-4.35
18,CCn1c(SCC(=O)Nc2cccc(Br)c2)nc2c1c(=O)n(C)c(=O)n2C,-1.64
19,CCC(NC(=O)[C@@H](C[C@H](C)c1ccccc1)NC(=O)c1ccc(-c2ccccc2Cl)cc1)C(=O)c1nnc(-c2ccccc2)o1 (stereo partly drawn),-5.2
20,COc1ccc(NC(=O)CN(c2cccc(F)c2)S(C)(=O)=O)c(OC)c1,3.75
21,N#Cc1c(NC(=O)CCC(=O)O)sc2c1CCCCC2,7.1
22,CCN(CC)CCNc1nc2c(c(=O)n(C)c(=O)n2C)n1CC(O)COc1cccc(C)c1 (stereo not drawn),-2.91

row,Structure (SMILES),% Inhibition @ 10 uM [%]
1,CCCCCC1CC(=O)N(Cc2ccc(Cl)cc2)C(=O)N1 (stereo not drawn),-5.24
2,O=C(O)c1ccccc1C(=O)c1ccc2c(c1)Cc1ccccc1-2,1.54
3,O=C(Nc1ccc2ccccc2c1)N(Cc1ccccc1)c1ccccc1,3.9
4,O=C1CC(c2ccc(Cl)cc2)NC(NC(=O)CCCOc2ccccc2)=N1 (stereo not drawn),-7.21
5,CC1CC(C)CN(C(=O)Cn2c(-c3nonc3N)nc3ccccc32)C1 (stereo not drawn),-0.116
6,N#Cc1c(C(F)(F)F)cc(-c2cccs2)nc1SCc1nc(N)nc(N2CCOCC2)n1,64.2
7,CCN(CC)CCN(C)CCC(C)c1ccccc1 (stereo not drawn),-5.65
8,O=C(O)C1C2C=CC(C2)C1C(=O)N1CCC(Cc2ccccc2)CC1 (stereo not drawn),-1.42
9,CCc1nnc(NS(=O)(=O)c2ccc(NC(=O)c3ccccc3)cc2)s1,1.24
10,CCCC1CCc2c(sc(NC(=O)OCC)c2C#N)C1 (stereo not drawn),3.72
11,CCCc1cc(NCCOCCO)n2c(nc3ccccc32)c1C#N,0.131
12,O=C(c1cccs1)C1CN2CCC1CC2 (stereo not drawn),10.4
13,CCOC(=O)N1CCC(/N=c2/c(-c3ccc(C)cc3)c(O)c2=O)CC1,1.69
14,CCCN1CCN(C(=O)Cn2cccc2C(=O)c2ccccc2)CC1,1.15
15,S=C1NCN(Cc2ccco2)CN1Cc1ccccc1,-5.62
16,Cn1cc(CCCC(=O)NCc2ccccc2)c2ccccc21,0.387
17,O=C(Nc1cccc(C(=O)O)c1)/C(=C/c1ccccc1)NC(=O)c1cccc(Br)c1,-1.64
18,N#CCNC(=O)c1cc2nc(-c3ccco3)cc(C(F)(F)F)n2n1,-2.22
19,CCC/C(=N\CCc1c(C)[nH]c2ccc(C)cc12)C1=C(O)CC(C)(C)CC1=O,1.03
20,COc1ccc(CCC(O)C2(O)CCCCC2)cc1 (stereo not drawn),-0.305
21,Nc1c(C(=O)Nc2ccc(F)cc2F)sc2nc(-c3cccs3)ccc12,0.727
22,O=c1c(CN2CCc3ccccc3C2)coc2ccccc12,2.23

row,Structure (SMILES),% Inhibition @ 10 uM [%]
1,O=C(COc1ccc(Cl)cc1Cl)Nc1ccccc1N1CCOCC1,2.22
2,CN1CCCC(CN2c3ccccc3Sc3ccccc32)C1 (stereo not drawn),-4.26
3,CCc1ccc(C2CC(=O)NC3=C2C(=O)CC(c2cccs2)C3)cc1 (stereo not drawn),1.97
4,CC1CCN(C(=O)c2cc(Cl)cc(Cl)c2NC(=O)c2ccco2)CC1,-2.22
5,Cc1cc2[nH]c3c4ccccc4ncc3c2cc1C,1.57
6,CC(C)c1c(O)nc(SCCN(C)C)nc1O,-0.289
7,CCN(CC)C(=O)CSc1nc(-c2ccc(C)cc2)nc2c1COC(C)(C)C2,-4.02
8,CCOc1ccc(NC(=O)c2ccc(N(Cc3ccccc3C)S(C)(=O)=O)cc2)cc1,-3.29
9,CN(CCc1ccccn1)C1CCSC1 (stereo not drawn),-3.27
10,Cc1ncc(CO)c2c1Oc1nc(-c3ccccc3)nc(S)c1C2,22.5
11,Cc1cc(C)nc(NS(=O)(=O)c2ccc(NC(=O)Nc3ccc(Cl)cc3)cc2)n1,-2.27
12,CCOC(=O)N1CCN(C(=O)C(NC(=O)c2ccc(CC)cc2)C(C)C)CC1 (stereo not drawn),-4.04
13,COc1ccc(C2N[C@H](C(=O)O)CS2)cc1 (stereo partly drawn),-2.51
14,O=C(O)c1ccc(NC(=O)C(c2ccccc2)c2ccccc2)cc1,5.77
15,Cc1nn(-c2ccccc2)c2nc(C3CC3)cc(C(=O)NCc3ccccc3)c12,3.06
16,CC1CCc2c(sc(N)c2C(=O)NC2CCCCC2)C1 (stereo not drawn),-5.34
17,Cc1ccc(NC(=O)NC(C)(C)C)cc1,-1.78
18,CC(C(=O)NCc1cccnc1)n1c2ccccc2c2cnn(C)c(=O)c21 (stereo not drawn),-2
19,CCCC(=O)/N=C1\SC2CS(=O)(=O)CC2N1Cc1ccccc1 (stereo not drawn),2.21
20,Cn1c(=O)c(-c2ccccc2)nc2ccccc21,-3.65
21,Nc1ccc(Br)c(NC(=O)c2ccccc2)c1,6.7
22,O=C(Nc1noc2c1COc1ccccc1-2)NC1CCCCC1,-0.255
